Among the data in article PMC5836133 are binding signal values, retold here.

Some of the results follow. At the low end of the ranking the order means little.

The subject of this experiment is T1, GST-NbGlk1(82-244).
T1 sequence: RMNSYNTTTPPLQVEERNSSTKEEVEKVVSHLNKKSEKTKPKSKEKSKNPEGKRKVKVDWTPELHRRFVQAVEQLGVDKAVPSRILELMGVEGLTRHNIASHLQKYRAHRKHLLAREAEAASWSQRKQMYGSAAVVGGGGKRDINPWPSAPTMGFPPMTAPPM
Briefly: protein-binding microarray.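 Further: rank-based score ranging −0.5 to +0.5 with E above 0.45 taken as significant binding.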 The settings on record: NbGlk1 is a Golden2-like transcription factor of Nicotiana benthamiana; high values mean tight binding; most listed sequences are background and not binding sites; double strand, one strand shown.
ATTAGACA came in with a binding signal of 0.0562 E-score.

Consider CAAGATTG, for which the binding signal was 0.308 E-score.

Turning to ATCGAATA, the binding signal is 0.235 E-score.

For the sequence ACGAAACA, the binding signal is -0.05 E-score.

In turn, AGTCTGAT showed a binding signal of 0.0552 E-score.

ATGCTGCG came in with a binding signal of -0.0766 E-score.

For AAAAGCCT, the binding signal was -0.076 E-score.

For AAGGAGGT, the binding signal is -0.134 E-score.

On to AACAATGT, for which the binding signal is 0.0236 E-score.

ACCAGTGG had a binding signal of -0.2 E-score.

Take CAAGTCAC: the binding signal was -0.0658 E-score.

The sequence ATCAAGAC registered a binding signal of 0.191 E-score.

Turning to ATGGCCTA, the binding signal was -0.124 E-score.

For the sequence ACTCTTCA, the binding signal is -0.181 E-score.

The sequence ATAATCAA had a binding signal of 0.216 E-score.

With AGGTATAC, the binding signal was -0.106 E-score.

The sequence AAATTTAT yielded a binding signal of 0.22 E-score.

As to ACAACATC, the binding signal turned out to be 0.148 E-score.

Sequence ACGAGCCT displayed a binding signal of -0.189 E-score.

ACAGTGGT gave a binding signal of -0.161 E-score.

With ACTGTGCG, the binding signal is -0.0753 E-score.

Sequence ATTTTAGG registered a binding signal of 0.166 E-score.

AGCATGAC registered a binding signal of -0.249 E-score.

On to CAAGGCTA, for which the binding signal is -0.341 E-score.

As for AGATAACA, the binding signal is 0.0981 E-score.

Take ATGGGAAG: the binding signal is -0.15 E-score.

As for AGGCTGGG, the binding signal is -0.18 E-score.

For the sequence AATGCTAT, the binding signal was 0.0771 E-score.

As to AAGAGCAT, the binding signal was -0.117 E-score.

Take ACTCTGAA: the binding signal is -0.0906 E-score.

In the case of AACCGCGT, the binding signal was 0.0236 E-score.

AGCCGACA registered a binding signal of -0.142 E-score.

ATCTCTTG showed a binding signal of 0.379 E-score.

On to ACCATATC, for which the binding signal was 0.319 E-score.

On to CAACAAGC, for which the binding signal is -0.0726 E-score.

In the case of AACCACGC, the binding signal was -0.0885 E-score.

With CACCGGTC, the binding signal was -0.18 E-score.

AGATACCC registered a binding signal of 0.352 E-score.

For CAACGAGG, the binding signal was -0.0756 E-score.

The sequence AATCAGTC yielded a binding signal of 0.159 E-score.

Sequence AGCATGAA yielded a binding signal of -0.0657 E-score.

Turning to ACTGTCAT, the binding signal was -0.0801 E-score.

In the case of AGCTGACT, the binding signal was -0.227 E-score.

As for AAACCAAC, the binding signal turned out to be 0.0899 E-score.

As to AGAGCAGA, the binding signal is -0.0466 E-score.

AACACGAG showed a binding signal of -0.00728 E-score.

As for AACTGTAT, the binding signal was -0.0473 E-score.

Take CACGTCAG: the binding signal was -0.169 E-score.

As for ACACTGCA, the binding signal was -0.0524 E-score.

Sequence AGTGATTG registered a binding signal of 0.153 E-score.

ATCGTAAG had a binding signal of 0.172 E-score.

With AGAGTTCC, the binding signal was -0.223 E-score.

For AGTTAAGC, the binding signal was -0.142 E-score.

For ACTCTTAA, the binding signal was -0.0344 E-score.

Take AGTCGCCG: the binding signal is -0.274 E-score.

For the sequence AACTCCGG, the binding signal is -0.142 E-score.

For AGTATTAA, the binding signal is -0.0267 E-score.

The sequence ACCGGTTA had a binding signal of -0.0559 E-score.

In turn, AACTGCAG yielded a binding signal of -0.159 E-score.

ACCCCTTG registered a binding signal of -0.18 E-score.

On to ATACGAGA, for which the binding signal came out at 0.231 E-score.

Sequence ACAAAAAA displayed a binding signal of 0.224 E-score.

Consider ATTTCGTA, for which the binding signal is 0.399 E-score.

With AAATACTT, the binding signal stood at 0.149 E-score.

For the sequence ACGATCGG, the binding signal came to 0.154 E-score.

Take AGACATGG: the binding signal was -0.0128 E-score.

For CACGCCAG, the binding signal is -0.23 E-score.

As to ATCGATCC, the binding signal amounted to 0.0645 E-score.

Turning to ATCCCATC, the binding signal was 0.176 E-score.

For the sequence AACCGGTA, the binding signal was -0.1 E-score.

AGTCCACC yielded a binding signal of -0.244 E-score.

With ATGAATGC, the binding signal was -0.035 E-score.

In turn, AATGAGGT came in with a binding signal of 0.042 E-score.

Sequence ACACCCGT yielded a binding signal of -0.158 E-score.

AGATTGAT displayed a binding signal of 0.13 E-score.

ACACATAT showed a binding signal of 0.168 E-score.

Turning to CAGCGCAG, the binding signal was -0.158 E-score.

For AGGAGATA, the binding signal amounted to 0.228 E-score.

Sequence ACGCCCAT displayed a binding signal of -0.216 E-score.

AGCTCTCA registered a binding signal of -0.122 E-score.

In the case of AACCATGT, the binding signal was -0.0886 E-score.

On to ACGGGTAG, for which the binding signal is -0.0863 E-score.

In turn, AGCCTTGC returned a binding signal of -0.394 E-score.

AGGGATAG displayed a binding signal of -0.0799 E-score.

Regarding ATTGTTGA, the binding signal is -0.0209 E-score.

AGCTCGTC yielded a binding signal of -0.208 E-score.

The sequence AACACACA displayed a binding signal of -0.0394 E-score.

In turn, AAGTCAGT had a binding signal of -0.0101 E-score.

On to AACGTGTA, for which the binding signal is -0.105 E-score.

In turn, ACCAACAG showed a binding signal of -0.0883 E-score.

Regarding AATCGGTG, the binding signal is 0.184 E-score.

Sequence ATCATGTG displayed a binding signal of 0.131 E-score.

AGGCCGGG showed a binding signal of -0.329 E-score.

In turn, ATTCATAG displayed a binding signal of 0.0968 E-score.

AACATAAT displayed a binding signal of 0.233 E-score.

Consider AGTCCGAA, for which the binding signal was -0.066 E-score.

With AAGGTTGA, the binding signal was -0.057 E-score.

As for AATAAGAT, the binding signal worked out at 0.3 E-score.

With ATTCCATC, the binding signal was determined as 0.151 E-score.

Take ACATTAGA: the binding signal is 0.141 E-score.

The sequence ATCACTCG registered a binding signal of 0.0719 E-score.

For the sequence ACACGTTA, the binding signal is -0.0247 E-score.

Consider AATTCCAT, for which the binding signal came to 0.155 E-score.

CAATCGGC yielded a binding signal of 0.0817 E-score.

For CAACAATG, the binding signal is 0.0445 E-score.

As to ATGAAATG, the binding signal is -0.0458 E-score.

AAATAGTA yielded a binding signal of 0.0113 E-score.

Sequence AGCTAAGC registered a binding signal of -0.168 E-score.

On to AATGGACT, for which the binding signal is -0.167 E-score.

ATTCGAAG registered a binding signal of 0.135 E-score.

For the sequence AGTTACTC, the binding signal was -0.0457 E-score.

In turn, CACTCCAG showed a binding signal of -0.152 E-score.

Consider CACAAGGA, for which the binding signal was -0.0555 E-score.

In turn, AGGGGATC returned a binding signal of 0.316 E-score.

In turn, AGGGCACA gave a binding signal of -0.209 E-score.

AACATTGA: the binding signal is -0.0186 E-score.

Turning to ATACCGGC, the binding signal is -0.0511 E-score.

AAGAGTAT returned a binding signal of 0.153 E-score.

With AGAAGTAC, the binding signal was -0.19 E-score.

With ATTTTGGA, the binding signal stood at 0.3 E-score.

Sequence ATTGGTTC came in with a binding signal of -0.0747 E-score.

As for AAATGCAG, the binding signal was -0.0399 E-score.

AAATCACG had a binding signal of 0.381 E-score.

AACCATAC: the binding signal was -0.104 E-score.

As for ATGATTAC, the binding signal is 0.302 E-score.

As to AGAAGCCG, the binding signal is -0.277 E-score.

ACGTCGTC returned a binding signal of -0.0957 E-score.

The sequence ATGGGACC had a binding signal of -0.264 E-score.

ATTTACAC gave a binding signal of 0.193 E-score.

Consider AAACTAGT, for which the binding signal was -0.0599 E-score.

In the case of ACAGATAG, the binding signal worked out at 0.0125 E-score.

AGGATTTA registered a binding signal of 0.193 E-score.

In the case of AATACAGG, the binding signal is 0.15 E-score.

In turn, AACCACGG returned a binding signal of -0.124 E-score.

AGTGGTTC showed a binding signal of -0.0698 E-score.

As to AGCTGCTC, the binding signal is -0.302 E-score.

Turning to ACGCCAAG, the binding signal was -0.0875 E-score.

In turn, ACACTACA returned a binding signal of 0.0864 E-score.

In the case of CACACCTA, the binding signal was -0.0689 E-score.

The sequence AATAGATT registered a binding signal of 0.406 E-score.

For the sequence ACGATGGC, the binding signal was -0.109 E-score.

AATGGATA gave a binding signal of 0.3 E-score.

CACGTCTA displayed a binding signal of -0.222 E-score.

Sequence AGTTCGAA displayed a binding signal of 0.00087 E-score.

AGGTCGAA displayed a binding signal of -0.142 E-score.

For the sequence ATAAGGTG, the binding signal is -0.0935 E-score.

Regarding AATTTTCG, the binding signal worked out at 0.198 E-score.

AAGCTAGT yielded a binding signal of -0.147 E-score.

AGATCACG came in with a binding signal of 0.26 E-score.

ACCCCGCA came in with a binding signal of -0.0991 E-score.

On to AGACTGCA, for which the binding signal was -0.128 E-score.

AAGGTATG gave a binding signal of 0.0486 E-score.

With AGCAGCCC, the binding signal is -0.307 E-score.

ACGATAAC showed a binding signal of 0.0739 E-score.

In turn, AGGCAATC registered a binding signal of 0.417 E-score.

In the case of ATAGATTG, the binding signal is 0.327 E-score.

Consider ATCGAGTG, for which the binding signal was -0.0298 E-score.

As to ATCTGCGC, the binding signal is 0.317 E-score.

AAGGATGG registered a binding signal of -0.12 E-score.

For ACAGGTCC, the binding signal was -0.255 E-score.

As to ATGCGATG, the binding signal stood at 0.0323 E-score.

Sequence CAACATTA returned a binding signal of 0.029 E-score.

The sequence AGCCGCAC yielded a binding signal of -0.156 E-score.

The sequence ATTGACCC showed a binding signal of -0.262 E-score.

For CAACTCAG, the binding signal was -0.0133 E-score.

The sequence ACTAGAGA returned a binding signal of -0.0483 E-score.

ATTGCATG returned a binding signal of 0.221 E-score.

In turn, AATGGAAG had a binding signal of -0.199 E-score.

As to ACTAGAGG, the binding signal is -0.0997 E-score.

AACACAGA: the binding signal is 0.00497 E-score.

In the case of ACGCCCGT, the binding signal is -0.108 E-score.

For the sequence ACGAACTA, the binding signal was -0.0769 E-score.
